In the supplement of paper PMC3724861:
Some of the results follow.

System: T1, Caupolican (Caup) homeodomain DNA-binding domain
T1 sequence: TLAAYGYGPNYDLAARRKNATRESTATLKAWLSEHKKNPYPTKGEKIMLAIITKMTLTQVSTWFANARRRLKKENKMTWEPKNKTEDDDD
Test: PBM E-score (8-mer, recovered from the published 9-mer minima) (E-score (dimensionless, -0.5 to 0.5)); Drosophila protein; higher = stronger relative binding preference, active = 0.31 or more
How it was run: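 Caup's homeodomain DNA-binding domain (residues 214-303) was produced by in vitro transcription and translation and applied at 100 nM to custom-designed protein binding microarrays. Each value is an enrichment score giving relative binding preference for a short DNA word; higher means stronger. Published 9-mer scores were the minimum of their two constituent 8-mer scores, and the 8-mer values were recovered from those minima. A cutoff of 0.31 marks candidate binding sequences.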

PBM E-score, ≥ 0.0146:
AAGACCGA

PBM E-score, ≥ 0.149:
ACACTGGT

PBM E-score, ≥ -0.0604:
AACCGCCT

PBM E-score, ≥ 0.0485:
ATGAAGGA

PBM E-score, ≥ -0.0162:
AGCCACAC

PBM E-score, ≥ 0.0959:
ACGCGTCA

PBM E-score, ≥ 0.117:
ATAAGGAT

PBM E-score, ≥ 0.0649:
AACTCCTT

PBM E-score, ≥ -0.0217:
CGGCATCA

PBM E-score, active:
GTCTTGTA 0.352

PBM E-score, ≥ 0.127:
AAACTCAT

PBM E-score, ≥ 0.098:
AAGTCAAT

PBM E-score, ≥ 0.0633:
ACTTCGTA

PBM E-score, inactive:
AACCAGCG -0.0304
CATCAACC 0.113
CATTTTGC 0.0868
GGTCAACA 0.159
GTTCATGA 0.115
CTCAATAC 0.0995
AGAGATGA -0.00602
AGCAGAAA -0.00844
ATGCTCAG 0.0153
CATTAGCG -0.0517
AGCGCATG -0.0275
TAGTCCCA -0.0546
ACTAGAAA 0.0206
AACCCAAC 0.0724
GATTCCTA -0.0121
ACTTTGAC 0.0611
ATGAAGCA 0.0527
CATCCGCG -0.013
ATAGCTAT 0.0666
AATGACGT 0.112
AAGTACTA 0.197
AAGTGGCC -0.186
ATTGCGTA 0.0504
TGATCCAA 0.0971
TAATATGA 0.182
CGAGGGTA -0.154
ACTATACA 0.245
CTTGAAGA -0.0903
ACAGCTTA 0.0802
CGTAATGA 0.094
GCTGGTAA 0.00432
ATGCTAGG -0.0403
CGCTATGA 0.0359
AGTCGGAT 0.00516
AGTAGTTA 0.169
GTAAAACA 0.174
CTCGAGAA -0.0341
CGAGCCCA -0.102
ACCGCTAC -0.121
AGTCGCCC -0.191
CGGCGTCC -0.152
AGAGGTAG -0.0483
TATAAAAA 0.0823
CAATGAGC -0.0635
AAGTCATT 0.0183
CATGAGCA 0.0293
AAGTCTCC -0.0551
CAATTGTG 0.0958
ATACCGTC -0.0836
AAGCCTAA -0.0994
CTAGACTC -0.123
ATGCATGA 0.122
CGAGTCAA 0.0846
CGGCGCCG -0.183
TAAACTCA 0.0783
CGCAGATC -0.116
CTGATACA 0.188
CGACTACG -0.019
AACTCTCC -0.0907
AGACATGC 0.303
AAGGGGTA -0.149
AACACCGA 0.161
CAGCTGTC -0.00715
AGGTGCAT 0.0539
GCTACCAC -0.0253
TGCGTGAA 0.0802
CGAAACAG 0.0527
GCCTACAC 0.0771
ATTCGTGG 0.0194
CTGCGGGA -0.245
GCATCGAA -0.0547
AATCTACT 0.0171
AGCTCGCC -0.197
GTCTTGCA 0.0651
GCATCACA 0.138
ACGTGAGC -0.0733
AGACCGTG 0.0373
CCGACCGC -0.26
TAGGACGA 0.0114
GAATCCGC -0.165
TAACATCA 0.305
ACCCAGGG -0.145
GTCTGACA 0.197
ACTACCTC 0.0403
GTAAGCTA 0.0865
ACTTCTGA 0.0332
ATAAACCC 0.0213
CAAACAAC 0.293
GGGGATGA -0.113
AAGTGAGC -0.0682
TAAGCCGA -0.0833
CCCACACA -0.153
ACGACCTG -0.0314
ACTTACCC -0.0346
AGCGTCAG -0.0242
CCTGATGA -0.016
GACAACGC 0.152
AAGAATCG 0.0339
GCCACCCA -0.168
ATCAATTG 0.129
ACCTCGCG -0.0928
CTCTTTGA -0.0801
CTGGATGC -0.13
GAGTCATC -0.092
CGCTGAAG -0.19
ACCTACCG -0.0767
ACGTGCAG -0.0625
CAATTGAA 0.0207
GTTATGAA 0.132
CCGTTGCA -0.0577
ACCTTGCG -0.089
CTACCGGC -0.0933
ATTCGGTG 0.0946
AGAGTCCA -0.0854
AAGCTACT 0.0372
AAATCCGT 0.0968
GACTCTCC -0.127
GACTGACA 0.154
TTCCGGAA -0.0746
CAAAGAAA -0.0387
ACCCCATG -0.0338
CTGCAAGA -0.108
ATAACCAT 0.0905
GACAGAAC 0.084
ACCCCGGG -0.172
ATTATCGG 0.0382
GGGAGTCA -0.111
GCTCCATA -0.111
CGTGCTCC -0.0113
AATCCACC -0.0363
ATAACGTG 0.103
CCGTACAA 0.152
CGAGCCAG -0.0646
CAAATGGA 0.0816
AGCCTATC -0.158
CAAGCCAG -0.0282
ACTGTACG 0.0534
CGGTCACC -0.124
ATTTTGAG 0.0566
AGCGGGCA -0.233
AAGCTAAA 0.034
CAGTTGCG -0.0806
ACAGTTTG 0.0438
ACGATTAT 0.144
AGCAGGTG -0.0416
GCGCCCCA -0.31
AACAGCTC -0.0405
AGGAAATG 0.0222
TAAGTAAA 0.0166
GCTGGTTA 0.1
CATACCAG 0.0479
AAAGTTAG 0.0333
ATGTCGCC 0.208
CACAAAAA 0.133
ATGTGCAA 0.17
CACTAGCC -0.14
ATATGAAG 0.029
CGGCAATC -0.0727
GAAAGACA 0.163
CGCATGGC -0.16
AGAGCAAC 0.0211
AGTATTTG 0.111
GATGACGC -0.132
CCGGATCG -0.121
ACGTAACT 0.0508
ATTGCGGG -0.0884
AACGTTAT 0.167
GGTCGGGA -0.15
CTCATTCC -0.0174
ACATACCA 0.248
CCGGGTTA -0.1
AGAACTCG -0.0449
CAGGTTTC 0.0145
GCAGTTCA -0.106
CGTTCTGA 0.00408
AGCGCTAT 0.0173
ATTATCCG -0.0156
ATTCCTAC 0.107
CTGTGAGA -0.00857
AAGCGCTC -0.0742
GTGTGCCA -0.102
CCGGAGGC -0.277
CTCTCACA -0.0652
CGTTACTA 0.144
AGTCACGA 0.0855
CTCCATGA 0.00385
AAGCGTAA -0.0109
AGACATCC 0.145
AGCCATAA 0.0213
GAGACTTA -0.0631
TACTGCGA -0.0185
CACGGACA 0.246
AGGCCCCT -0.232
ATTCATTC 0.128
CATTTTAC 0.169
TCAAACGA 0.0735
GACATATA 0.305
AGCACGAA 0.112
GCCTGCTA -0.107
AGTGAGGC -0.106
CCACCCAC -0.105
ACCAAATC 0.0282
AGATTACC 0.113
CTTCGGCA -0.215
AGGTTCTC -0.111
GTAAGTAC 0.177
CTTATGCA 0.0215
TAATGGTA 0.0647
CCTCCCAC -0.108
GTCTAGAC 0.0815
ATCTGGCC -0.139
ATACCGCC -0.143
